In PMC10201506 (Signal Transduction and Targeted Therapy, 2023):

Legend:
SARS-CoV-2 nsp16/10 = SARS-CoV-2 nsp16/10 (Severe acute respiratory syndrome coronavirus 2, UniProt P0DTD1); assay: SARS-CoV-2 nsp16/10 inhibition; type: biochemical; settings: text: viral life cycle related targets
trypsin = trypsin (Homo sapiens, UniProt P07477); settings: read-out: IC50 Trypsin/serine

SMILES	IC50 (SARS-CoV-2 nsp16/10) [µM]	IC50 (trypsin) [µM]
O=C(c1cc(=O)[nH]c2ccccc12)N1CCN(c2ccc(Cl)c(Cl)c2)CC1CN1CCOCC1 (centres unmarked) [JZD-07, 4-(4-(3,4-Dichlorophenyl)-2-(morpholinomethyl)piperazine-1-carbonyl)quinolin-2(1H)-one]	> 100	–
CC(C)(C)[C@H](NC(=O)C(F)(F)F)C(=O)N1C[C@H]2[C@@H]([C@H]1C(=O)N[C@H](C#N)C[C@@H]1CCNC1=O)C2(C)C [PF-07321332]	–	> 100
